{
  "source": "the supplement of paper PMC8728848",
  "test_in_all_cases": "glycan array binding signal (z-score within array); higher = stronger binding",
  "conditions_in_all_cases": "glycan notation: IUPAC condensed, linker removed",
  "key": {"[1]": {"biological_target": "Fuc(a1-2)[GalNAc(a1-3)]Gal(b1-3)GlcNAc(b1-3)GalNAc", "outline": "(§1)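 The binding signal is a Z-score computed within each array. Data were drawn from 3228 arrays in the Consortium for Functional Glycomics database, restricted to those with a known protein sequence. Scores were averaged over arrays of the same protein sequence at different concentrations or buffers, and over linkers, and negative values can be taken as non-binding.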"}, "[2]": {"biological_target": "Fuc(a1-2)[GalNAc(a1-3)]Gal(b1-3)GlcNAc(b1-6)GalNAc", "outline": "as §1"}, "[3]": {"biological_target": "Fuc(a1-2)[GalNAc(a1-3)]Gal(b1-4)Glc", "outline": "as §1"}, "[4]": {"biological_target": "Fuc(a1-2)[GalNAc(a1-3)]Gal(b1-4)GlcNAc", "outline": "as §1"}, "[5]": {"biological_target": "Fuc(a1-2)[GalNAc(a1-3)]Gal(b1-4)GlcNAc(b1-2)Man", "outline": "as §1"}, "[6]": {"biological_target": "Fuc(a1-2)[GalNAc(a1-3)]Gal(b1-4)GlcNAc(b1-2)Man(a1-3)[Fuc(a1-2)[GalNAc(a1-3)]Gal(b1-4)GlcNAc(b1-2)Man(a1-6)]Man(b1-4)GlcNAc(b1-4)GlcNAc", "outline": "as §1"}, "[7]": {"biological_target": "Fuc(a1-2)[GalNAc(a1-3)]Gal(b1-4)GlcNAc(b1-2)Man(a1-3)[Fuc(a1-2)[GalNAc(a1-3)]Gal(b1-4)GlcNAc(b1-2)Man(a1-6)]Man(b1-4)GlcNAc(b1-4)[Fuc(a1-6)]GlcNAc", "outline": "as §1"}, "[8]": {"biological_target": "Fuc(a1-2)[GalNAc(a1-3)]Gal(b1-4)GlcNAc(b1-3)Gal(b1-4)GlcNAc", "outline": "as §1"}, "[9]": {"biological_target": "Fuc(a1-2)[GalNAc(a1-3)]Gal(b1-4)GlcNAc(b1-3)Gal(b1-4)GlcNAc(b1-3)Gal(b1-4)GlcNAc", "outline": "as §1"}, "[10]": {"biological_target": "Fuc(a1-2)[GalNAc(a1-3)]Gal(b1-4)GlcNAc(b1-3)GalNAc", "outline": "as §1"}, "[11]": {"biological_target": "Fuc(a1-2)[GalNAc(a1-3)]Gal(b1-4)GlcNAc(b1-3)[Fuc(a1-2)[GalNAc(a1-3)]Gal(b1-4)GlcNAc(b1-6)]GalNAc", "outline": "as §1"}, "[12]": {"biological_target": "Fuc(a1-2)[GalNAc(a1-3)]Gal(b1-4)GlcNAc(b1-6)GalNAc", "outline": "as §1"}, "[13]": {"biological_target": "Fuc(a1-2)[GalNAc(a1-3)]Gal(b1-4)[Fuc(a1-3)]GlcNAc", "outline": "as §1"}, "[14]": {"biological_target": "Fuc(a1-2)[GalNAc(a1-3)]Gal(b1-4)[Fuc(a1-3)]GlcNAc(b1-3)GalNAc", "outline": "as §1"}, "[15]": {"biological_target": "Fuc(a1-2)[GalNAc(a1-4)]Gal(b1-4)GlcNAc", "outline": "as §1"}, "[16]": {"biological_target": "Fuc(a1-2)[GalNAc(b1-3)]Gal", "outline": "as §1"}, "Fuc(a1-3)GlcNAc": {"biological_target": "Fuc(a1-3)GlcNAc", "outline": "as §1"}, "[17]": {"biological_target": "Fuc(a1-3)[Gal(b1-4)]Glc6S", "outline": "as §1"}, "[18]": {"biological_target": "Fuc(a1-3)[Gal(b1-4)]GlcNAc", "outline": "as §1"}, "[19]": {"biological_target": "Fuc(a1-3)[Gal(b1-4)]GlcNAc(b1-2)Man", "outline": "as §1"}, "[20]": {"biological_target": "Fuc(a1-3)[Gal(b1-4)]GlcNAc(b1-2)Man(a1-3)[Fuc(a1-3)[Gal(b1-4)]GlcNAc(b1-2)Man(a1-6)]Man(b1-4)GlcNAc(b1-4)GlcNAc", "outline": "as §1"}, "[21]": {"biological_target": "Fuc(a1-3)[Gal(b1-4)]GlcNAc(b1-2)Man(a1-3)[Fuc(a1-3)[Gal(b1-4)]GlcNAc(b1-2)Man(a1-6)]Man(b1-4)GlcNAc(b1-4)[Fuc(a1-6)]GlcNAc", "outline": "as §1"}, "[22]": {"biological_target": "Fuc(a1-3)[Gal(b1-4)]GlcNAc(b1-3)Gal(b1-3)[Fuc(a1-4)]GlcNAc", "outline": "as §1"}, "[23]": {"biological_target": "Fuc(a1-3)[Gal(b1-4)]GlcNAc(b1-3)Gal(b1-4)[Fuc(a1-3)]GlcNAc", "outline": "as §1"}, "[24]": {"biological_target": "Fuc(a1-3)[Gal(b1-4)]GlcNAc(b1-3)Gal(b1-4)[Fuc(a1-3)]GlcNAc(b1-3)Gal(b1-4)[Fuc(a1-3)]GlcNAc", "outline": "as §1"}, "[25]": {"biological_target": "Fuc(a1-3)[Gal(b1-4)]GlcNAc(b1-3)GalNAc", "outline": "as §1"}, "[26]": {"biological_target": "Fuc(a1-3)[Gal(b1-4)]GlcNAc(b1-6)GalNAc", "outline": "as §1"}, "[27]": {"biological_target": "Fuc(a1-3)[Gal(b1-4)]GlcNAc(b1-6)[Gal(b1-3)GlcNAc(b1-3)]Gal(b1-4)Glc", "outline": "as §1"}, "[28]": {"biological_target": "Fuc(a1-3)[Gal(b1-4)]GlcNAc6S", "outline": "as §1"}, "[29]": {"biological_target": "Fuc(a1-3)[Gal3S(b1-4)]Glc", "outline": "as §1"}, "[30]": {"biological_target": "Fuc(a1-3)[Gal3S(b1-4)]GlcNAc", "outline": "as §1"}, "[31]": {"biological_target": "Fuc(a1-3)[Gal3S(b1-4)]GlcNAc6S", "outline": "as §1"}, "[32]": {"biological_target": "Fuc(a1-3)[GalNAc(b1-4)]GlcNAc", "outline": "as §1"}, "[33]": {"biological_target": "Fuc(a1-3)[GalNAc(b1-4)]GlcNAc6S", "outline": "as §1"}, "Fuc(a1-4)GlcNAc": {"biological_target": "Fuc(a1-4)GlcNAc", "outline": "as §1"}, "Fuc(b1-3)GlcNAc": {"biological_target": "Fuc(b1-3)GlcNAc", "outline": "as §1"}, "Gal(a1-2)Gal": {"biological_target": "Gal(a1-2)Gal", "outline": "as §1"}},
  "note": "The other results are listed elsewhere or left out.",
  "data": [
    {"binder": "HML-Native (Hypnea musciformis), P84871 (protein) QKFCTLDIAPVCCQIVIGGGMYTAGNACMCEGFVSGVGRCENPKECPCTREAQIPSCCSSRWGLVSVTGKCACDCLGGTVAFPEPCPSPY", "values": [
      {"measurement": "glycan array binding signal (z-score)", "setting": "[1]", "result": -0.072},
      {"measurement": "glycan array binding signal (z-score)", "setting": "[2]", "result": -0.215},
      {"measurement": "glycan array binding signal (z-score)", "setting": "[3]", "result": -0.137},
      {"measurement": "glycan array binding signal (z-score)", "setting": "[4]", "result": -0.162},
      {"measurement": "glycan array binding signal (z-score)", "setting": "[5]", "result": -0.344},
      {"measurement": "glycan array binding signal (z-score)", "setting": "[6]", "result": -0.193},
      {"measurement": "glycan array binding signal (z-score)", "setting": "[7]", "result": 1.42},
      {"measurement": "glycan array binding signal (z-score)", "setting": "[8]", "result": -0.272},
      {"measurement": "glycan array binding signal (z-score)", "setting": "[9]", "result": -0.092},
      {"measurement": "glycan array binding signal (z-score)", "setting": "[10]", "result": -0.302},
      {"measurement": "glycan array binding signal (z-score)", "setting": "[11]", "result": -0.305},
      {"measurement": "glycan array binding signal (z-score)", "setting": "[12]", "result": -0.288},
      {"measurement": "glycan array binding signal (z-score)", "setting": "[13]", "result": -0.275},
      {"measurement": "glycan array binding signal (z-score)", "setting": "[14]", "result": -0.211},
      {"measurement": "glycan array binding signal (z-score)", "setting": "[15]", "result": -0.162},
      {"measurement": "glycan array binding signal (z-score)", "setting": "[16]", "result": -0.348},
      {"measurement": "glycan array binding signal (z-score)", "setting": "Fuc(a1-3)GlcNAc", "result": -0.242},
      {"measurement": "glycan array binding signal (z-score)", "setting": "[17]", "result": -0.205},
      {"measurement": "glycan array binding signal (z-score)", "setting": "[18]", "result": -0.29},
      {"measurement": "glycan array binding signal (z-score)", "setting": "[19]", "result": -0.264},
      {"measurement": "glycan array binding signal (z-score)", "setting": "[20]", "result": -0.08},
      {"measurement": "glycan array binding signal (z-score)", "setting": "[21]", "result": 0.654},
      {"measurement": "glycan array binding signal (z-score)", "setting": "[22]", "result": -0.3},
      {"measurement": "glycan array binding signal (z-score)", "setting": "[23]", "result": -0.103},
      {"measurement": "glycan array binding signal (z-score)", "setting": "[24]", "result": -0.199},
      {"measurement": "glycan array binding signal (z-score)", "setting": "[25]", "result": -0.313},
      {"measurement": "glycan array binding signal (z-score)", "setting": "[26]", "result": -0.15},
      {"measurement": "glycan array binding signal (z-score)", "setting": "[27]", "result": -0.299},
      {"measurement": "glycan array binding signal (z-score)", "setting": "[28]", "result": 0.017},
      {"measurement": "glycan array binding signal (z-score)", "setting": "[29]", "result": -0.176},
      {"measurement": "glycan array binding signal (z-score)", "setting": "[30]", "result": -0.253},
      {"measurement": "glycan array binding signal (z-score)", "setting": "[31]", "result": -0.117},
      {"measurement": "glycan array binding signal (z-score)", "setting": "[32]", "result": -0.105},
      {"measurement": "glycan array binding signal (z-score)", "setting": "[33]", "result": -0.222},
      {"measurement": "glycan array binding signal (z-score)", "setting": "Fuc(a1-4)GlcNAc", "result": 0.088},
      {"measurement": "glycan array binding signal (z-score)", "setting": "Fuc(b1-3)GlcNAc", "result": -0.206},
      {"measurement": "glycan array binding signal (z-score)", "setting": "Gal(a1-2)Gal", "result": -0.317}
    ]}
  ]
}
